In ChEMBL document CHEMBL1157539, “Thousands of chemical starting points for antimalarial lead identification” (Nature, 2010):
Values joined by “and” are separate entries in the source; they are usually repeats but may differ in a detail not shown here. Equal values may be shown once. Whole data set: some 13,000 compounds, median “IFI” near 4, cut for the highest 2% near 17. The list shows a part of the results.

Experiment: GSK_TCMDC: Inhibition Frequency Index (IFI). The number of non-kinase HTS assays where a compound showed > 50 % inhibition, expressed as a percentage of the number of such assays in which the compound was tested (-0 is zero)
Type: functional

| SMILES | IFI |
| --- | --- |
| CC(=O)Nc1cccc(CN(Cc2ccc(-c3ccc(CNCc4cccnc4)cn3)cc2)C(=O)Cc2cccnc2)c1 | -0% |
| COc1ccc2c(N/N=C/c3ccccc3[N+](=O)[O-])cc(C)nc2c1 | 0.77% |
| Clc1ncccc1-c1nc(NCCC(c2ccccc2)c2ccccc2)no1 | 4.84% |
| CC(C)c1ccc(NC(=O)N[C@H]2CCN(CCCCCNC(=O)/C=C/c3ccc(Cl)c(Cl)c3)C2)cc1 | 7.86% |
| COc1ccc(NC(=O)[C@H](Cc2ccccc2)Nc2cc(C)nc(Nc3ccccc3)n2)cc1 | 2.5% |
| O=C(Nc1cccc(CN2CCCN(CCc3ccccc3)CC2)c1)c1cc2ccccc2s1 | 7.75% |
| CCNc1cc(C(=O)N[C@@H](Cc2ccccc2Cl)[C@H](O)CNC2CCCCC2)cc(N2CCCCS2(=O)=O)c1 | 2.88% |
| CN1CCN(c2cc3c(cc2Cl)CCN3C(=O)Cc2ccc(Cl)c(NC(=O)Nc3cccc([N+](=O)[O-])c3)c2)CC1 | 5% |
| CCOc1ccccc1C=CC(=O)Nc1ccc2nc(N3CCN(C)CC3)cc(C)c2c1 | 6.85% |
| CCCOc1ccc(CNCCCCCCNCc2ccc(OCCC)c3ccccc23)c2ccccc12 | 15.6% |
| COc1ccc(C2C(C(=O)Nc3cc(Cl)c(OC)cc3OC)c3ccccc3C(=O)N2C)cc1 (centres undefined) | 0.69% |
| O=[N+]([O-])c1ccc(-c2nc3cc(C4=NC5CCCCC5N4)ccc3[nH]2)cc1 (centres undefined) | 1.39% |
| O=C(NCc1ccccc1)c1nn(CCCN2CCC(N3CCCC3)CC2)cc1-c1ccc(Cl)c(Cl)c1 | 9.46% |
| Cc1noc(-c2ccc(O)cc2O)c1-c1ccc2c(c1)OCCCO2 | 3.76% |
| Cc1[nH]c(C)c(-c2ccc(Oc3ccc(OC(F)(F)F)cc3)cc2)c(=O)c1Br | 1.94% and -0% |
| O=C(NC1CCC(CCN2Cc3cccc(F)c3C2)CC1)c1cccc(-c2cccnc2)c1 (centres undefined) | -0% |
| O=c1nc2[nH]c3ccccc3n2c(=O)[nH]1 | -0% |
| N=C(N)Nc1ccc(NC(=O)Nc2ccc(NC(=N)N)cc2)cc1 | 1.47% |
| COc1ccc(-c2nc(NC(=O)COc3ccc(C(C)=O)cc3)sc2C)cc1 | 2.99% |
| CC(C)(C)OC(=O)N[C@@H](Cc1ccccc1)C(=O)Nc1cccc(-c2cccc(NC(=O)[C@H](Cc3ccccc3)NC(=O)OC(C)(C)C)c2)c1 | 0.72% |
| N=C(N)NN=Cc1c[nH]c2ccc(-c3ccccc3)cc12 | 3.68% |
| NC[C@H](CC1CCCCC1)NC(=O)c1ccc(-c2ccnc3[nH]ccc23)s1 | 22.2% |
| Cc1cccc(Cn2c(C(N)=O)nn(-c3ccc([N+](=O)[O-])cc3C#N)c2=S)c1 | 2.72% |
| CC(CN(C)C)C(=O)Nc1ccc(-c2ccc(-c3nc4ccccc4[nH]3)s2)cc1 (centres undefined) | 4.5% |
